Measured values taken from the supplement of paper PMC4967469.
A lower IC50 marks a more sensitive line; where the fit passes the top or lowest dose, that dose stands as a limit. AUC is the area under the same curve over the 256-fold range up to the top dose, as a fraction: 1 means no effect, lower means more sensitive. Any top dose called inferred comes from the curve model; the source does not state it.

What was measured:
FR-180204 = compound: Nc1[nH]nc2nnc(-c3c(-c4ccccc4)nn4ccccc34)cc12 [FR-180204]; assay: Viability of human cancer cell lines after 72 h of drug (GDSC screen); conditions: top dose 20 µM; top dose inferred
Procedure: (§1)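 Human cancer cell lines in 384-well plates, medium with 10% serum, drug for 72 h over a 256-fold dose range (nine 2-fold or five 4-fold steps up to the top dose). Adherent lines were fixed and stained with the nucleic acid dye Syto60, suspension lines read with resazurin; signal relative to control wells, capped at 0 and 100%. One two-parameter sigmoid per drug and line, fitted in a mixed model over all curves with the slope shared within a line.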

FK866 = compound: O=C(/C=C/c1cccnc1)NCCCCC1CCN(C(=O)c2ccccc2)CC1 [FK866]; assay: as above; conditions: top dose 1 µM; top dose inferred
Procedure: as §1

Cell Line | AUC (FR-180204) | IC50 (FR-180204) [nM] | AUC (FK866) | IC50 (FK866) [nM]
FTC-133 (thyroid, adherent) | 0.985 | > 20000 | 0.653 | 173
FU97 (stomach, adherent) | 0.974 | > 20000 | 0.873 | > 1000
FU-OV-1 (ovary, adherent) | 0.903 | > 20000 | 0.909 | > 1000
Farage (B-cell lymphoma, suspension) | 0.993 | > 20000 | 0.992 | > 1000
G-292 Clone A141B1 (osteosarcoma, adherent) | 0.976 | > 20000 | 0.679 | 268
G-361 (melanoma, adherent) | 0.98 | > 20000 | 0.341 | 23.1
G-401 (kidney, adherent) | 0.956 | > 20000 | 0.978 | > 1000
G-402 (soft tissue, adherent) | 0.971 | > 20000 | 0.313 | 15.6
G-MEL (melanoma, adherent) | 0.982 | > 20000 | 0.793 | 452
GAK (melanoma, adherent) | 0.989 | > 20000 | 0.861 | 781
GAMG (glioma, adherent) | 0.984 | > 20000 | 0.844 | 769
GB-1 (glioma, adherent) | 0.975 | > 20000 | 0.059 | < 3.91
GCT (soft tissue, adherent) | 0.988 | > 20000 | 0.317 | 20.1
GDM-1 (acute myeloid leukaemia, suspension) | 0.853 | 14600 | 0.044 | < 3.91
GI-1 (glioma, adherent) | 0.987 | > 20000 | 0.18 | 7.22
GI-ME-N (neuroblastoma, adherent) | 0.952 | > 20000 | 0.114 | < 3.91
GMS-10 (glioma, adherent) | 0.984 | > 20000 | 0.626 | 139
GOTO (neuroblastoma, adherent) | 0.983 | > 20000 | 0.053 | < 3.91
GP5d (large intestine, adherent) | 0.947 | > 20000 | 0.482 | 56
GR-ST (lymphoblastic leukaemia, suspension) | 0.962 | > 20000 | 0.061 | < 3.91
GRANTA-519 (B-cell lymphoma, suspension) | 0.991 | > 20000 | 0.062 | < 3.91
GT3TKB (stomach, adherent) | 0.99 | > 20000 | 0.038 | < 3.91
H4 (glioma, adherent) | 0.981 | > 20000 | 0.105 | < 3.91
H9 (lymphoid neoplasm, suspension) | 0.952 | > 20000 | 0.064 | < 3.91
H513 (mesothelioma, semi-adherent) | 0.907 | > 20000 | 0.978 | > 1000

Cell Line | AUC (FR-180204) | IC50 (FR-180204) [nM] | AUC (FK866) | IC50 (FK866) [nM]
H2369 (mesothelioma, adherent) | 0.985 | > 20000 | 0.808 | 537
H2373 (mesothelioma, adherent) | 0.972 | > 20000 | 0.654 | 188
H2461 (mesothelioma, adherent) | 0.978 | > 20000 | 0.526 | 75
H2591 (mesothelioma, adherent) | 0.976 | > 20000 | 0.935 | > 1000
H2595 (mesothelioma, adherent) | 0.961 | > 20000 | 0.927 | > 1000
H2722 (mesothelioma, adherent) | 0.983 | > 20000 | 0.977 | > 1000
H2731 (mesothelioma, adherent) | 0.923 | > 20000 | 0.972 | > 1000
H2795 (mesothelioma, adherent) | 0.977 | > 20000 | 0.674 | 189
H2803 (mesothelioma, adherent) | 0.966 | > 20000 | 0.886 | > 1000
H2804 (mesothelioma, adherent) | 0.979 | > 20000 | 0.958 | > 1000
H2818 (mesothelioma, adherent) | 0.989 | > 20000 | 0.916 | > 1000
H2869 (mesothelioma, adherent) | 0.983 | > 20000 | 0.982 | > 1000
H3118 (head and neck, adherent) | 0.94 | > 20000 | 0.087 | < 3.91
H3255 (lung adenocarcinoma, adherent) | 0.845 | 18700 | 0.959 | > 1000
HA7-RCC (kidney, adherent) | 0.959 | > 20000 | 0.594 | 117
HAL-01 (lymphoblastic leukaemia, suspension) | 0.87 | 15100 | 0.027 | < 3.91
HARA (lung squamous cell carcinoma, adherent) | 0.97 | > 20000 | 0.281 | 13.3
HC-1 (hairy cell leukaemia, suspension) | 0.978 | > 20000 | 0.07 | < 3.91
HCC38 (breast, adherent) | 0.976 | > 20000 | 0.985 | > 1000
HCC70 (breast, adherent) | 0.882 | > 20000 | 0.73 | 278
HCC202 (breast, adherent) | 0.939 | > 20000 | 0.912 | > 1000
HCC1143 (breast, adherent) | 0.955 | > 20000 | 0.363 | 22.4
HCC1187 (breast, suspension) | 0.981 | > 20000 | 0.787 | 413
HCC1395 (breast, adherent) | 0.983 | > 20000 | 0.842 | 921
